# Test results published in the RNAGym collection of RNA variant scans (doi:10.1073/pnas.2313332121).
# Variants at the background level are over-represented here.
# B1: TPR 5TU (parent)
# chain: GGAUCUUCUCGAUCUAACAAAAAAGACAAAUCUGCCACAAAGCUUGAGAGCAUCUUCGGAUGCAGAGGCGGCAGCCUUCGGUGGCGCGAUAGCGCCAACGUUCUCAACUAUGACACGCAAAACGCGUGCUCCGUUGAAUGGAGUUUAUCAUG
# Variants of: B1
# Test: polymerase ribozyme fitness, log enrichment relative to wild type (log ratio); higher = more active; in vitro selection for triplet polymerase activity
# Outline: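 Input and output libraries were sequenced on Illumina after a single in vitro selection round, run in triplicate on PCR-built, transcribed mutant libraries of each subunit of a heterodimeric triplet polymerase ribozyme. Selection annealed libraries to a biotinylated primer, the partner subunit and triplets, incubated them frozen at −7 °C, then gel-excised extended constructs for streptavidin-bead capture and RT-PCR. Genotypes with ≥10 input reads and ≥1 read per output were kept. Fitness is the logarithm, taken in base 2, of genotype enrichment divided by wild-type enrichment, using inverse-variance-weighted replicate averages.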
row,Variant,polymerase ribozyme fitness (log ratio)
1,G34U A47U,-2.01
2,U33G U55A A89G A110G,≤ -4.2
3,G34A C85G U104A G143U,≤ -4.2
4,C35A C63U C87U G126U U130G U148C,≤ -4.2
5,G34C A60G C96G C105G A137G,≤ -4.2
6,U33G C87A U134G A138U,≤ -4.2
7,U33G U55A G70A G80C,≤ -4.2
8,U33A A52C C69U C79U C87A C129G,≤ -4.2
9,U33A C79A C85U,≤ -4.2
10,C35A G50C U55A G86A C114A A122U G136C,≤ -4.2
11,G34A A41C U55A C103G C105U G136A,≤ -4.2
12,G34A C36G C69G C76A C95G G112A,≤ -4.2
13,G34U G71C G84A G94C C96A U102C,≤ -4.2
14,U33A C35U G58C G88C C103U,≤ -4.2
15,C35A C75G U90G U146G,≤ -4.2
16,U33A A91C,≤ -4.2
17,G34A G42U C95G C116U,≤ -4.2
18,U33A U45A U78G G88A U109A A137C,≤ -4.2
19,U33C G81C C93U C96A A150G,≤ -4.2
20,U33C G34U G48A A52G C54U C103G,≤ -4.2
21,U33G G50C G67C U102A C108U U144A,≤ -4.2
22,C32U U82C,-1.74
23,U33C A37G C63A C87G U111G U151A,≤ -4.2
24,G34C C54U A91U,≤ -4.2

row,Variant,polymerase ribozyme fitness (log ratio)
1,U33G G46A A49C U77C A98U C99U G152U,≤ -4.2
2,U33C A39U G50A U61A G128A C149U,≤ -4.2
3,G34A C79A C87A U139A,≤ -4.2
4,U33G A47C U56A A73G G83U C99A,-4.05
5,G34U A64G U127A G128U,≤ -4.2
6,G34U G59A A73G C96G U135G,≤ -4.2
7,G34A A41G A120U,-1.2
8,U33G G70U G83U C103G C131G,≤ -4.2
9,U33G G68A C87G C108U A120C G136U,≤ -4.2
10,C35A C54G G83A C125A,≤ -4.2
11,G34C C93U A121G U144G U146A,≤ -4.2
12,G34C C93U U139A G141C,≤ -4.2
13,U33A G94C C95U A113C,≤ -4.2
14,U33C C54G G71U C96U U102G G126C,≤ -4.2
15,G34A C76U C93A C116G A150C,≤ -4.2
16,G34U G50U A91C,-4.01
17,U33G G46C C95U C99A A107G G133U,≤ -4.2
18,C35A C69A C87A C93U C131A,≤ -4.2
19,U33A A47U C76U C85A C95U A115U C131G,≤ -4.2
20,U33G U53G C54U G58A C69U C85A C114U U151A,≤ -4.2
21,C35A C43G C72U A142C,≤ -4.2
22,U33C A39C G88A C118G C123A,≤ -4.2
23,G34U C36U G80U C103G A106C,≤ -4.2
24,U33A A41G C75G C79A A91G A115U,≤ -4.2

row,Variant,polymerase ribozyme fitness (log ratio)
1,U33G A66G G74U C116G,≤ -4.2
2,G34C G58C C114A,≤ -4.2
3,U33A A47C C99A,≤ -4.2
4,U33A C75A A110U,≤ -4.2
5,C35A G46A C103G C118G U135C,≤ -4.2
6,U33A G92C G94A A147G U151G,≤ -4.2
7,U33G U44G G46U A47C A137G,≤ -4.2
8,G34A U55A C69A C76U G80C C87G A89C A107C C116U,≤ -4.2
9,U33G C54U C96G A147U,-3.24
10,U33G A40G C54G G59A A66G A91U C99G G126C,≤ -4.2
11,U33G A49C U77C C131G,≤ -4.2
12,U33C C57U A60U G81U C87U A91G,≤ -4.2
13,U33A U82G C95U,≤ -4.2
14,U33A A73U C87U C93G C105U C108G,≤ -4.2
15,C35A A91G C131G,≤ -4.2
16,G34C A47C G58C G70A G71A A89U C93G,≤ -4.2
17,G34A A47U G50A C63U,-2.2
18,U33G G42A A52G U53A A73U U144G,≤ -4.2
19,C35A C95U A120C C125A U148G,≤ -4.2
20,U33G A49U A91G G152A,≤ -4.2
21,U33G G50U U90G C96G,-3.98
22,G34U U82G C96G A106G U145C,-3.75
23,U33A C43U A60U C93A C96U U151C G152A,≤ -4.2
24,U33G G50C U56A U134G U145C,≤ -4.2

row,Variant,polymerase ribozyme fitness (log ratio)
1,G34A C87G C93U C103G C118U U151A,≤ -4.2
2,C35A G50C U55A G58U G88C A110G,≤ -4.2
3,U33C G80U A91C A122G,≤ -4.2
4,G34C A39G A49C A97U,≤ -4.2
5,C35A A47C C105G A107G,≤ -4.2
6,C35A C51U C95G U127G U135A U145G,≤ -4.2
7,G34C C87G U90G G92A U148A,≤ -4.2
8,U33G A40G A52C C57A G86A U104A C114A,≤ -4.2
9,G34A U55G C87G G88U G141C,≤ -4.2
10,U33G G94A C123G G136A,≤ -4.2
11,U33A A41U A64C C76A C95U G124U A138C,≤ -4.2
12,C35A A49C U77C C103G U146A,≤ -4.2
13,U33A G42A U45C G65U C87A C118G,≤ -4.2
14,G34U U45A C93U C116G U145C,≤ -4.2
15,U33G U61A C76A,≤ -4.2
16,G34A G92U C96G A147C U148G G152U,≤ -4.2
17,C35A A49C C85U,≤ -4.2
18,G34A C87A C116G U139A,≤ -4.2
19,C35A C76U,-3.95
20,C35A C76G,≤ -4.2
21,U33G A39C C54U,-3.84
22,U33G G86U,-3.95
23,U33G A60U G81C G83A G92A U127A U148A,≤ -4.2
24,U33C C36U U56A G84U U90C A110C G143C,≤ -4.2

row,Variant,polymerase ribozyme fitness (log ratio)
1,G34A G84A U134G,-2.82
2,G34A G83A C85A G112U A138U,≤ -4.2
3,U33G G59C G68C C69G G71C C72A A73G C96A C114G U127G,≤ -4.2
4,U33C U90C G117U G141U,≤ -4.2
5,U33C G80U C93A U109G U111G,≤ -4.2
6,G34A G81C C105G A107G G124A,≤ -4.2
7,U33G A41U,≤ -4.2
8,U33A U55A U61A U82G C95G U135G U144G,≤ -4.2
9,C32U G74A C93U,-0.21
10,G34C C54U G86U A98C G117U,≤ -4.2
11,G34U C57A C76G G83A C116U,≤ -4.2
12,C35A G42U G48A G68A A106C C116U A120U G141A,≤ -4.2
13,U33G G50U C51G A52C C76A G92A C93A A98U,≤ -4.2
14,G34U A39C A60C U61A G70U C87A U101G C132U,≤ -4.2
15,U33C A41U A49U G62C C95U U127G,≤ -4.2
16,U33G C95U A138C G141U,≤ -4.2
17,U33A A41C U53C C57U G65A A66C G67C G80C,≤ -4.2
18,C35A C87A G124U U144C,≤ -4.2
19,U33C A73G C85A U111C A119G,≤ -4.2
20,G34U G80C U102G U148G,≤ -4.2
21,U33A G46A C93G,≤ -4.2
22,U33G U44A G46C A73G C76A C95U G133U,≤ -4.2
23,C35A G68C G80C C93U G143A,≤ -4.2
24,C35A G59U U78A,≤ -4.2

row,Variant,polymerase ribozyme fitness (log ratio)
1,G34A G59A C93G A106C,≤ -4.2
2,G34U G83U A115G U145G,≤ -4.2
3,G34C U45A G50C A52C U53A C76A G81A G92A C105G,≤ -4.2
4,U33A C75U G84A A115G A142U,≤ -4.2
5,U33C C54U G67U C87A C96G A97G U104A C125G U127C U134A,≤ -4.2
6,U33C C85U A119G,-3.71
7,G34U A49G G71A A91C C93G,≤ -4.2
8,U33A U44G C54A G80A A138U,≤ -4.2
9,G34C G84A C96A A121U,≤ -4.2
10,G34A G46U U55A C57U U102G U135A,≤ -4.2
11,C35A A47G G84U G88U G140C,≤ -4.2
12,G34A G84A C95G,-0.00509
13,G34A C79U A107C C108G C116G,≤ -4.2
14,G34U U56G G58A C69G G94C A97G U134C,≤ -4.2
15,U33G C99U C116A G143C U145C,≤ -4.2
16,U33G A113C,-4.01
17,U33G A113U,≤ -4.2
18,U33G G68U A89G U109A,≤ -4.2
19,C32U U56A A91U A113U C118A G143C C149U,≤ -4.2
20,G34U G50C G70C U148C,≤ -4.2
21,C35A C95A G128U G152A,≤ -4.2
22,U33C A49G U77G U130A G133U U135A,≤ -4.2
23,G34A C54A U56A C96G G100A,≤ -4.2
24,C32U U55A G140U U148G,≤ -4.2

row,Variant,polymerase ribozyme fitness (log ratio)
1,G34A U55G G81A G126A A138G,≤ -4.2
2,G34A C36A A137G,≤ -4.2
3,U33G A37U A60C C75U G94U C108U,≤ -4.2
4,C35A C63U G68A A91C C116G,≤ -4.2
5,U33G A41C C54A C72U C132U,≤ -4.2
6,U33G C36U A40C C51U C93U U134A A147C,≤ -4.2
7,U33C C85G,≤ -4.2
8,U33A G68A G94C C105U G141U,≤ -4.2
9,U33A G50A A64C G83C,≤ -4.2
10,U33A C87U C131G A142G,≤ -4.2
11,G34U G68U C85U C95A,≤ -4.2
12,U33G C57U C95A C105U A119C,≤ -4.2
13,G34A C57G G117A U144A,-3.39
14,G34U U53A A60G C87G C95G C103A,≤ -4.2
15,C32U U55A U77A G141C G152U,≤ -4.2
16,C32U U77C C85A C96U U130C G133U,≤ -4.2
17,G34U C54G C76G C93G C105G A110G A142C,≤ -4.2
18,G34A C72U C96A C103U A150C,≤ -4.2
19,G34C C75A G94A C108G U130A,≤ -4.2
20,C35A A89C C96A C116G C125G U135A A137G,≤ -4.2
21,G34A U78G G86U A106G A115G A120G,≤ -4.2
22,G34C G58A G68C G84A U90G A120G C125G,≤ -4.2
23,C35A A49C A60G C85U C125G,≤ -4.2
